# Data taken from paper PMC4336329 (PLoS ONE, 2015).
# In all, about 310,000 compounds went through this assay and about 14,000 (4.5%) showed an effect of 50% or more. Effects have a minus sign here. This is one part of the list.
# Biological target: human ether-à-go-go-related gene (hERG) potassium channel (human, UniProt Q12809)
# Test: primary screen, population patch clamp on CHO cells stably expressing hERG
# 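Note: peak tail current of the secondary pulse compared with the same well before compound.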
# Chain of human ether-à-go-go-related gene (hERG) potassium channel (Q12809 whole entry, looked up): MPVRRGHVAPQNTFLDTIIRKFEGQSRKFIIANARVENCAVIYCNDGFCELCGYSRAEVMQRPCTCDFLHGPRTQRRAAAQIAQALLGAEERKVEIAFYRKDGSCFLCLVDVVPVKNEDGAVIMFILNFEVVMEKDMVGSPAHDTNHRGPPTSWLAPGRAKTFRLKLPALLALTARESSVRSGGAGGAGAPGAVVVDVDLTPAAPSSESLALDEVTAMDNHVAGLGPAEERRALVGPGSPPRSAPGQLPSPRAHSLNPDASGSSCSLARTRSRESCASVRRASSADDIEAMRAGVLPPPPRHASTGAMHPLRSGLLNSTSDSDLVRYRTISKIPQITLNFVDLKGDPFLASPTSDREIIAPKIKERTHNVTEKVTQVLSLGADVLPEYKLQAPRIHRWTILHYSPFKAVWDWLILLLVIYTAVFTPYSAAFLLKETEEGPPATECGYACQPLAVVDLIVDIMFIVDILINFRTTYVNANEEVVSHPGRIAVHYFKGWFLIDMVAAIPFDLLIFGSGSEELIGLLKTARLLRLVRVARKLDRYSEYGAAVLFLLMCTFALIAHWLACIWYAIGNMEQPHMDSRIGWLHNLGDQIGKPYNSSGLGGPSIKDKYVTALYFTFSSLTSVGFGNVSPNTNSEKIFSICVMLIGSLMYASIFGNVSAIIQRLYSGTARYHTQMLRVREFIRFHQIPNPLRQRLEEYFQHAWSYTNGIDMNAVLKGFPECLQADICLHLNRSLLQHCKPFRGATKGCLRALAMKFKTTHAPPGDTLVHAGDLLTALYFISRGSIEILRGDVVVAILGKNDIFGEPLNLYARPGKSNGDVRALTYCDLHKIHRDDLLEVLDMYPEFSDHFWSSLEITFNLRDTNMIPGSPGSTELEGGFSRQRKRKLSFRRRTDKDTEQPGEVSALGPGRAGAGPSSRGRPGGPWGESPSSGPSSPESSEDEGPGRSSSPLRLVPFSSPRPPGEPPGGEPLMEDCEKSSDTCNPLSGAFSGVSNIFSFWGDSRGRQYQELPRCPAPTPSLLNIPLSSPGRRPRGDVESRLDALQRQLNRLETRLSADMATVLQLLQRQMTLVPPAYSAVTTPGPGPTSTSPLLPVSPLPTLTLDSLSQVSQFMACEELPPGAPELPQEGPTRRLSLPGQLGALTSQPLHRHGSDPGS
row,Compound,"hERG current change (%, negative = inhibition) at 10uM"
1,Fc1ccc(CNCCc2ccccc2)cc1.O=C(O)C(=O)O,-18.2%
2,Cc1[nH]c(=O)c(C#N)c(C)c1CSc1ncccn1,-10.2%
3,CCN(CC)S(=O)(=O)c1ccc(N2CCOCC2)c(NC(=O)c2ccc(N3CCCC3=O)cc2)c1,-10.3%
4,O=C(c1ccccc1)c1ccc(COC(=O)c2cnccn2)cc1,-1.03%
5,Cc1ccccc1C1=NC(C(F)(F)F)(C(F)(F)F)c2c(n(-c3ccc(F)cc3)c(=O)[nH]c2=O)N1,12.5%
6,COc1ccc(-c2nnn(CC(=O)N(CC(=O)NC3CCCC3)Cc3ccco3)n2)cc1OC,-18.1%
7,O=C(CSc1nc2cc(Cl)ccc2s1)Nc1cccc(S(=O)(=O)N2CCOCC2)c1,-10.7%
8,O=C(Nc1ccccc1)c1ccc(CN2CCC(Cc3ccccc3)CC2)cc1,14.7%
9,COc1ccc(NC(=O)CCS(=O)(=O)c2cc3c(cc2C)NC(=O)CO3)cc1,-23.4%
10,CCn1c(=S)sc2c(=O)n(CC(=O)Nc3ccc(OC)c(Cl)c3)c(C)nc21,18.7%
11,O=C(Nc1ccc(Br)cc1)N1CCCCCC1,-6.79%
12,CCC(C)NC(=O)CSc1nc2ccccc2c(=O)n1-c1c(C)n(C)n(-c2ccccc2)c1=O (centres unmarked),1.66%
13,CC1CC(C)CN(c2oc(Cc3ccccc3)nc2C#N)C1 (centres unmarked),-2.37%
14,CC(=O)Nc1c(Cl)cc([N+](=O)[O-])c2ccccc12,-12%
15,COCCOc1nc2c(c(=O)n(C)c(=O)n2C)n1CCc1ccccc1,-3.94%
16,Cc1c(NC(=O)Nc2ccccc2[N+](=O)[O-])c(=O)n(-c2ccccc2)n1C,19.3%
17,COc1ccc2c(c1OC)C(=O)OC2Nc1nc(-c2ccc([N+](=O)[O-])cc2)cs1 (centres unmarked),14.5%
18,O=C(Nc1nnc(-c2ccc(Cl)cc2)o1)C1CCCCC1,12.4%
19,FC(F)(F)c1ccc(C2[C@H]3CN(Cc4cccnc4)[C@H](c4ccccc4)C34CC2(c2cccnc2)C4)cc1 (some centres unmarked),2.05%
20,NC(=O)C1(N2CCCCC2)CCN(C2CC(=O)N(Cc3cccs3)C2=O)CC1 (centres unmarked),6.12%
21,Cc1ccc(C(=O)NCCN2CCOCC2)cc1Cl,-17.7%
22,Cc1cccc(C)c1NC(=O)CSc1nnc(-c2ccoc2C)n1C,6.02%
23,O=C(Nc1ccccc1Cl)Nn1cnnc1,18.1%
